In PubChem BioAssay AID493208 (National Center for Advancing Translational Sciences (NCATS), 2011):
Screen size: about 44,000 compounds; about 340 (0.77%) were called active. Not shown: some 5% with an inconclusive outcome. Calls follow the shape of the dose curve; as a rule, active = well fitted inhibition curve with a large enough effect; inconclusive = small, poorly fitted or top-dose-only effect; inactive = flat fitted curve, though single readings scatter. This is one part of the list.

assay: Acumen qHTS Assay for Inhibitors of the mTORC1 Signaling Pathway in MEF (Tsc2-/-, p53-/-) Cells: Sytravon; conditions: phospho-rpS6 immunofluorescence/PI, 24 h; series mostly up to 38.3 µM; activity change, negative = inhibition: at the top concentration;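 also: plate controls were DMSO for no effect and rapamycin for full effect; nearly all actives have a fitted effect of over 50% in size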
Summary of the method: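 Compounds act on Tsc2-/-, p53-/- fibroblasts carrying an empty vector for 24 h before fixation and dual staining for phospho-S6 and DNA (propidium iodide). Values are percentages of cells above a rapamycin-defined pS6/PI threshold.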

Activity change, negative = inhibition, inactive:
COc1ccc(OC)c(NC(=O)CSC2=Nc3ccccc3C3=NC(CCC(=O)NCc4ccco4)C(=O)N23)c1 (stereo unspecified) -7.48%
O=S1(=O)c2ccccc2N(Cc2ccc(Cl)cc2F)c2ccccc21 1.99%
CN(C)S(=O)(=O)c1ccc2c(c1)c(=O)c(C(=O)N1CCN(c3cccc(Cl)c3)CC1)cn2C -2.53%
CCOC(=O)c1ccc(NC(=O)CN(c2ccc(C)cc2)S(=O)(=O)c2ccc(OC)cc2)cc1 -9.92%
CCC(=O)Nc1nnc(S(=O)(=O)N(C)Cc2ccc(Cl)cc2)s1 0.257%
CCOc1ccccc1NC(=O)CSC1=Nc2ccccc2C2=NC(CC(=O)NC3CCCCC3)C(=O)N12 (stereo unspecified) -15.8%
COc1ccc(N2CCN(CCCNC(=O)Nc3ccccc3Cl)CC2)cc1 -8.76%
COc1ccc(CCNC(=O)CN(c2ccc(C)cc2)S(=O)(=O)c2ccc(OC)cc2)cc1 -0.853%
CCOc1ccc(-c2nc3c(c(SCC(=O)N4CCCCC4)n2)Cc2cc(C)ccc2O3)cc1 0.93%
CCOc1ccc(CN2C(=O)c3ccccc3Sc3ccc(C(=O)N4CCN(C)CC4)cc32)cc1 0.425%
CCC(Sc1nc2cc(OC)c(OC)cc2c(=O)n1Cc1ccc(Cl)cc1)C(=O)NCCOC (stereo unspecified) 0.537%
Cc1cc(NC(=O)c2cccnc2)cc(-c2nc3cc(Cl)ccc3o2)c1O 0.084%
Brc1ccc(-c2ccc(CNCCSc3nnnn3-c3ccccc3)o2)cc1 -5.31%
O=C(NC1CC(=O)N(c2ccccc2)C1)c1ccc(S(=O)(=O)N2CCOCC2)cc1 (stereo unspecified) -2.83%
COc1ccc(OC)c(NC(=O)CSc2n[nH]c(-c3ccccc3Cl)n2)c1 7.98%
c1ccc(-c2cn(-c3ccccc3)c3ncnc(N4CCN(c5ccccc5)CC4)c23)cc1 4.12%
CCOC(=O)CC(NC(=O)c1cc2cc(Cl)ccc2oc1=O)c1ccc(C)cc1 (stereo unspecified) 18.1%
Cc1cc(C)cc(Oc2c(C(F)(F)F)oc3c(CN4CCCC(C)C4)c(O)ccc3c2=O)c1 (stereo unspecified) 5.5%
COc1ccccc1N1CCN(c2ccc3cc(S(=O)(=O)N4CCCCC4)ccc3n2)CC1 3.5%
CCOc1ccc(-n2nc(CO)c(C(=O)NCc3ccc(Cl)cc3)n2)cc1 -0.67%
COc1ccc(Br)c2c1-c1nc(NC(=O)c3cccc(C)c3)sc1C2 -3.26%
CC1CCN(C(=O)CSc2c3c(nc4cc(Cl)ccc24)CCCC3)CC1 -9.76%
Cc1ccc(-c2nnc(SCCOc3ccccc3)o2)cc1 -10.1%
CCOc1ccc(-c2cn(-c3ccc(OC)cc3)c(SCC(=O)Nc3ccccc3Cl)n2)cc1 0.183%
COc1ccc(F)cc1S(=O)(=O)NCCc1csc(-c2ccc(Cl)cc2)n1 -8.12%
CCc1ccc(NC(=O)C2CCN(c3nnc(-n4c(C)ccc4C)s3)CC2)cc1 -0.103%
